PubChem BioAssay AID485281 (National Center for Advancing Translational Sciences (NCATS), 2010)
Values joined by “and” are separate entries in the source; they are usually repeats but may differ in a detail not shown here. Identical values can stand only once. Hit rate of the full screen: of about 350,000 compounds, about 260 (0.074%) were called active. The inconclusive results got no clear call from the source; some entries with a clear call stand among them for comparison. Calls come from the whole dose curve; as a rule, active = well fitted inhibition curve with a large enough effect; inconclusive = small, poorly fitted or top-dose-only effect; inactive = no such curve, though single readings can be large or run the other way. Potencies beside an inconclusive call are fits to weak or partial responses and may not hold up.

molecular target: Ferritin light chain (Equus caballus) (UniProt P02791); assay: qHTS Assay for Identification of Novel General Anesthetics; conditions: apoferritin/1-aminoanthracene competitive binding, fluorescence; series mostly up to 77.5 µM; note: nearly all actives have a fitted effect of over 20% in size
Outline: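 Apoferritin-based anesthetic binding model; compound displacement of fluorescent 1-AMA measured as endpoint fluorescence after 10 minutes at room temperature, scaled to free-ligand and complex controls.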
Potency is the fitted concentration of half-maximal effect; tags give direction and shape of the fitted curve.

UniProt P02791, sequence (P02791 whole entry, looked up): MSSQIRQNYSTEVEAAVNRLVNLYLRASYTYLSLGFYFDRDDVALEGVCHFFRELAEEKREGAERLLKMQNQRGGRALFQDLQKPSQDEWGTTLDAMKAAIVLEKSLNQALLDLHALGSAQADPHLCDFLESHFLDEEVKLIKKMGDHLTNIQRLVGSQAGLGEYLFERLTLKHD

Potency, inconclusive:
O=C1C2=C(C(=O)c3ccccc31)C1O[C@](c3ccsc3)(Cc3c1ccc1ccccc31)O2 2.24 µM [inhibitor, full curve, poor fit]
N#CCCN1CCN(S(=O)(=O)c2ccc3c(c2)OCCCO3)CC1 56.2 µM [inhibitor, single point]
CCC(NC(=O)Nc1ccc(O)cc1)(C(F)(F)F)C(F)(F)F 56.2 µM [inhibitor, partial curve, poor fit]
O=C(NCCC1=CCCCC1)C1CCN(Cc2cnn(-c3ccccc3)c2-n2cccc2)CC1 28.2 µM [inhibitor, partial curve]
CN(C)c1ccc(/C=N/NC(=O)CNC(=O)c2ccncc2)cc1 20 µM [inhibitor, partial curve]
COc1ccc(Nc2nc(S(=O)(=O)c3ccc(C)cc3)c(Cl)s2)cc1 39.8 µM [inhibitor, partial curve]
CCC1CN(C(=O)NCc2ccccc2)c2cc(Cl)ccc2O1 (centres undefined) 25.1 µM [inhibitor, partial curve]
CCOC(=O)NC(Nc1nc2ccccc2s1)(C(=O)OCC)C(F)(F)F (centres undefined) 25.1 µM [inhibitor, partial curve]
CCOC(=O)c1ccc(NC(=O)CSc2ccc(-c3ccccn3)nn2)cc1 50.1 µM [inhibitor, single point] and 20 µM [inhibitor, partial curve]
Cc1ccc(-c2nc3c(c(SCC(=O)N(C)c4ccccc4)n2)Cc2c(CO)cnc(C)c2O3)cc1 17.8 µM [inhibitor, partial curve]
Cc1ccc(/C=N/n2cnc3sc(-c4ccccc4)cc3c2=O)o1 50.1 µM [inhibitor, single point]
O=S(=O)(Nc1nc(-c2sccc2Cl)cs1)c1cc(Cl)ccc1Cl 20 µM [inhibitor, partial curve]
CC(C)(C)c1cccc(Oc2nn[nH]n2)c1 50.1 µM [inhibitor, single point]
C=CCn1c(COc2ccccc2)nnc1SCC(=O)Nc1ccc2c(c1)OCCO2 25.1 µM [inhibitor, partial curve]
CCOC(=O)c1c(NC(=O)/C=C/C(=O)O)sc(C)c1-c1ccc(C(C)(C)C)cc1 22.4 µM [inhibitor, partial curve]
Cc1cccc(-n2c(O)c(C=NC3CCS(=O)(=O)C3)c3ccccc3c2=O)c1 (centres undefined) 35.5 µM [inhibitor, single point]
Cc1c(Cl)cccc1NC(=S)N1CCCCCC1 17.8 µM [inhibitor, partial curve]
Oc1ccc(NCc2cccc(OCc3ccc(F)cc3)c2)cc1 22.4 µM [inhibitor, partial curve]
CC1(C)CCCN(C(=O)c2ccc3c(c2NCCO)C(=O)c2ccccc2C3=O)C1 31.6 µM [inhibitor, single point]
COc1cc(SC)ccc1C(=O)Nc1ccc2c(c1)OCCO2 39.8 µM [inhibitor, single point]
O=C(CCCOc1ccccc1)OCn1nnc2ccccc2c1=O 28.2 µM [inhibitor, partial curve]
COc1cccc(C(=O)Nc2ncc3c(n2)CC(c2ccc(OC)cc2OC)CC3=O)c1 (centres undefined) 7.94 µM [inhibitor, partial curve]
COc1ccc(Nc2nc(Nc3ccc(OC)cc3)nc(SC3=NCCS3)n2)cc1 20 µM [inhibitor, partial curve]
CC(=O)NN1C(=O)/C(=C\c2ccccc2)SC1=S 28.2 µM [inhibitor, partial curve]
CCN(CC)C(=O)Nc1ccc(Br)cc1 31.6 µM [inhibitor, partial curve]
CCCC1CCC(c2ccc(/C(N)=N/O)cc2)CC1 (centres undefined) 7.94 µM [inhibitor, partial curve]
N#Cc1c(N)nc2c(c1-c1cccc(O)c1)CCCCCC2 31.6 µM [inhibitor, partial curve]
CCCC[C@@H]1CCCO[C@@](C(=O)NCc2ccc(C)o2)(C(F)(F)F)C1 39.8 µM [inhibitor, single point]
Cc1ccc(NC(=S)c2nc3ccccc3[nH]2)cc1 12.6 µM [inhibitor, partial curve]
Cc1ccc(-c2cc(-c3nnc(SCC(=O)NC(C)C(C)C)n3N)c3ccccc3n2)cc1 (centres undefined) 28.2 µM [inhibitor, single point]
CN1CCN(c2ccc([N+](=O)[O-])c(Sc3nc4ccccc4[nH]3)c2)CC1 20 µM [inhibitor, partial curve]
O=C(c1ccc(Br)o1)N1CCN=C1SCc1cccnc1 50.1 µM [inhibitor, single point]
Cc1ccc(-c2ccc(=O)n(Cc3cccc(Br)c3)n2)cc1 10 µM [inhibitor, partial curve]
CN1CCN(c2ccc(C(=O)c3ccc(Br)cc3)cc2[N+](=O)[O-])CC1 35.5 µM [inhibitor, partial curve]
CCCCNS(=O)(=O)c1ccc2nc(SCC(=O)c3ccccc3OC)[nH]c2c1 39.8 µM [inhibitor, single point]
CCC(C)NCCOc1ccc(C(C)(C)c2ccccc2)cc1 (centres undefined) 14.1 µM [inhibitor, partial curve]
N/C(=N\OC(=O)CCc1ccccc1)c1ccccc1Cl 14.1 µM [inhibitor, partial curve]
c1coc(CN=C2NC(=NCc3ccco3)c3ccccc32)c1 22.4 µM [inhibitor, partial curve]
CCCCCCC(=O)Nc1nc(C)c(-c2csc(Nc3ccc(Cl)cc3)n2)s1 22.4 µM [inhibitor, partial curve]
O=C1NC(=O)C(c2ccccc2[N+](=O)[O-])=C1Nc1ccc(O)c(Cl)c1 20 µM [inhibitor, partial curve]
COc1ccc2cc(S(=O)(=O)N3CCCC3)ccc2c1 44.7 µM [inhibitor, single point]
O=C(c1cc(F)ccc1F)C1CCCN(C(=O)CSc2ccccn2)C1 (centres undefined) 14.1 µM [inhibitor, partial curve]
Clc1ccc(Sc2cnc3ccccc3n2)cc1 14.1 µM [inhibitor, partial curve]
O=S(=O)(NCCc1csc(-c2ccc(F)cc2)n1)c1ccc(F)cc1F 28.2 µM [inhibitor, partial curve]
Cc1ccc(C(=O)COC(=O)COc2ccc(C)c(C)c2)cc1 8.91 µM [inhibitor, partial curve]
Cc1cc(C)nc(SCC(=O)c2ccc(F)c(C)c2)n1 25.1 µM [inhibitor, partial curve]
Cc1ccnc(NC(=S)NC(=O)/C=C/c2ccco2)c1 35.5 µM [inhibitor, single point]
O=C(NCc1ccc(Cl)cc1)c1ccccc1Oc1ccccc1 3.16 µM [inhibitor, partial curve]
C=CCn1c(=O)c2c(nc(Br)n2Cc2ccccc2Cl)n(C)c1=O 15.8 µM [inhibitor, partial curve]
COC(=O)c1cc(NC(=O)Nc2cccc(Cl)c2)ccc1Cl 20 µM [inhibitor, partial curve]

Potency, inactive:
CC1(C)C2CCC1(C)C(OCCNCCOC(=O)Nc1ccccc1)C2 (centres undefined)
CCCCCC(=O)Nc1cccc(C2=NOC3(C2)C[C@@H](C(N)=O)N(C(=O)c2ccc(OC)cc2)C3)c1 (some centres undefined)
Cc1nc2ccccn2c1-c1ccnc(=S)[nH]1
Cc1ccc(C(C)C)c(OCCCN2CCc3ccccc3C2)c1
COc1ccc(CNC(=O)Nc2cccc(C(F)(F)F)c2)cc1OC
CCOc1ccc2[nH]c3c(N4CCc5ccccc5C4)ncnc3c2c1
COc1ccc(OC)c(CCNC(=O)c2cc3cccc4c3n2CC(C)S4)c1 (centres undefined)
Cn1c2ccccc2c2c(C(=O)N3CCN(c4cccc(Cl)c4)CC3)cn(C3CCCCC3)c(=O)c21
CCCCn1cnc2c(=S)nc(N)[nH]c21
COC(=O)c1ccccc1N(C)C(=O)C12CCC(C)(C(=O)O1)C2(C)C (centres undefined)
Cn1c(NC(=O)/C=C\c2ccccc2)cc(=O)n(C)c1=O
Oc1ccc(/C=N/N2CCN(C3c4ccccc4-c4ccccc43)CC2)cc1
COc1ccc(CNC(=O)CS(=O)Cc2nc(-c3ccc(OC)c(OC)c3)oc2C)cc1 (centres undefined)
COC(=O)c1cc(OC)c(OC)cc1NC(=O)CCCCCN1C(=O)CCC1=O
N#Cc1c(-c2ccccc2)cc(C2CC2)nc1N
COc1ccc(CN2C(=O)c3cccnc3C2Nc2cc(Cl)ccc2OC)cc1 (centres undefined)
COc1cccc2oc3ccc(C#CC4(N)CCCCC4)cc3c(=O)c12
O=C(CSc1ccccc1)Nc1ccc(N2CCOCC2)cc1
OC[C@H]1OC(O)[C@H](O)[C@@H](O)[C@@H]1O (some centres undefined)
